Data taken from PubChem BioAssay AID463173 (ICCB-Longwood Screening Facility, Harvard Medical School, 2010).
In all, about 52,000 compounds went through this assay and about 4,300 (8.3%) were called active. No stated cut-off is given here; in the data, active means survival mostly below about 52% (no sharp cut-off); inactive means mostly above about 56%. The list shows a part of the results.

System: DeltatarO mutant
Assay: S. aureus survival, RN4220 and DeltatarO strains – OD600, teichoic acid synthesis inhibitors, primary screen (AID 463173)
Conditions: S. aureus RN4220 wild type/DeltatarO growth, OD600, 18 h, stronger effect = lower value, screened at 18.75 µg/mL (by protocol)

Structure (SMILES)	survival
Cc1c(C(=O)N(Cc2cccc(Cl)c2)Cc2ccco2)oc2ccccc12	active: 40%
C=CCN(C)NC(=S)Nc1ccccc1	inactive: 98%
O=C(Cn1cc(SCc2ccc(Cl)cc2)c2ccccc21)N1CCCC1	inactive: 83%
CC(=O)Nc1ccc(NC(=O)CN2C(=O)CCc3cc(S(=O)(=O)N4CCCCC4)ccc32)cc1	inactive: 89%
O=C(Nc1ccc(F)cc1)Nc1nnc(SCC(=O)N2CCCCC2)s1	inactive: 80%
Cc1cccc(CNC(=O)CN2CC(C)Sc3ccccc32)c1 (centres undefined)	inactive: 94%
COc1cccc(NC(=O)c2ccc3c(=O)n4nc(Nc5ccccc5OC)sc4nc3c2)c1	inactive: 67%
COc1ccc(CNC(=O)c2ccc(CNS(=O)(=O)c3ccc(OC)cc3)cc2)cc1	inactive: 84%
COCCCNC(=O)c1ccc(Cn2c(=O)c3ccccc3n(Cc3ccc(C)cc3)c2=O)cc1	inactive: 67%
CCOC(=O)c1ccc(NC(=O)CC2Nc3cc(C)c(C)cc3NC2=O)cc1 (centres undefined)	inactive: 75%
CC(C)C(=O)Nc1cccc(C(=O)Nc2nncs2)c1	inactive: 87%
COC(=O)c1sccc1S(=O)(=O)N(CC(=O)Nc1cc(C)cc(C)c1)c1ccc(Cl)cc1	inactive: 88%
COc1ccc(-n2c(SCC(=O)NCc3ccccc3)nc3ccsc3c2=O)cc1	inactive: 88%
COc1ccc(CNC(=O)CN2C(=O)COc3ccc(S(=O)(=O)N4CCCCCC4)cc32)cc1	inactive: 79%
COc1ccc(NC(=O)c2nn(C)c3c2CSc2ccc(C)cc2-3)cc1OC	inactive: 72%
Cc1ccc(C2Nc3ccccc3-n3c(-c4ccccc4)c4c(=O)n(C)c(=O)n(C)c4c32)cc1 (centres undefined)	active: 41%
Cc1ccc2c(c1)-c1c(cnn1CC(=O)N1CCN(c3cccc(C(F)(F)F)c3)CC1)CO2	inactive: 50%
CC(=O)N1CCCc2cc(S(=O)(=O)N3CCCC(C(=O)N4CCN(c5ccccc5F)CC4)C3)ccc21 (centres undefined)	inactive: 83%
CCc1cccc(C)c1NS(=O)(=O)c1ccc2c(c1)NC(=O)C(C)C(=O)N2 (centres undefined)	inactive: 79%
CCOc1ccc(-n2c(=O)c3c4c(sc3n(CC(=O)NCCCOC)c2=O)CCCCC4)cc1	inactive: 119%
O=C(c1nn2c(c1Cl)NC(c1cccs1)CC2C(F)(F)F)N1CCOCC1 (centres undefined)	inactive: 77%
Cc1nc(SCC(=O)OC(C)(C)C)c2c3c(sc2n1)CCCC3	active: 7%
COc1ccc(C(=O)COC(=O)CCCC(=O)Nc2ccc(C(C)=O)cc2)cc1	inactive: 73%

Structure (SMILES)	survival
CCOc1ccc(-n2nc(CO)c(C(=O)NCC(c3ccccc3)c3ccccc3)n2)cc1	inactive: 48%
Cc1nc2cccnc2n1C1CCN(C(=O)Nc2ccccc2C(F)(F)F)CC1	inactive: 96%
CNS(=O)(=O)c1cn(CC(=O)N2CCN(c3ccc(Cl)cc3)CC2)cc1S(=O)(=O)NC	inactive: 106%
COc1cc(C)nc(Oc2ccc(OCCOc3ccccc3)nn2)n1	inactive: 95%
O=C(NCc1ccccc1)c1cccc(N2CCCS2(=O)=O)c1	inactive: 99%
COc1ccc(-c2cn3nc(N4CCCC(C(=O)Nc5cc(Cl)ccc5OC)C4)sc3n2)cc1 (centres undefined)	inactive: 80%
Cc1ccc(CNC(=O)c2c(-c3ccc(F)cc3F)noc2C)o1	inactive: 77%
Cc1cc(C)c(NC(=O)Cn2nnc(C(=O)NCc3cccs3)c2N)c(C)c1	inactive: 91%
COc1ccc(CC(=O)NCC(c2ccc(N(C)C)cc2)N2CCOCC2)cc1OC (centres undefined)	inactive: 92%
Cc1ccccc1OCc1ccc(-c2nc(C#N)c(N3CCCCC3)o2)o1	inactive: 99%
COc1cc(NC(=O)Cn2c(=O)n(-c3ccccc3)c(=O)c3c4c(sc32)CCCC4)cc(OC)c1	inactive: 105%
CCCCNC(=O)c1cnn2c(C)c(Cc3c(C)cc(C)cc3C)c(C)nc12	inactive: 102%
CC(C)COc1ccc(C(=O)Nc2scc(-c3ccc(Br)cc3)c2C(=O)OC(C)C)cc1	inactive: 53%
CCOC(=O)c1cc2c(=O)n3ccccc3nc2n(Cc2ccco2)c1=NC(=O)c1ccc(OC)cc1	active: 34%
Cc1cccc(OCC(=O)Nc2cccc(C(=O)OCc3cc(=O)n4c(C)csc4n3)c2)c1	active: -5%
O=C(CSc1nccn1Cc1ccc(F)cc1)NCc1ccccc1	inactive: 90%
COc1ccc(S(=O)(=O)N(CC(=O)NCCSc2ccccc2)c2ccc(Cl)cc2)cc1	inactive: 56%
CCc1cccc(N2C(=O)CSC23C(=O)N(Cc2ccccc2F)c2ccccc23)c1 (centres undefined)	inactive: 71%
COc1ccc(-n2ncc(C(=O)NCc3ccc4c(c3)OCO4)c2C2CCN(C(=O)OC(C)(C)C)CC2)cc1	inactive: 115%
CCCCn1c(SCC(=O)NC(C)(C)C)nnc1-c1ccncc1	inactive: 72%
CC(N)c1ccc2c(c1)OCCO2 (centres undefined)	inactive: 98%
COc1ccc(-c2cn3nc(SCC(=O)Nc4ccccc4F)ccc3n2)cc1	inactive: 98%
Cc1cc(C)c(NC(=O)COCc2cc(-c3cccs3)on2)c(C)c1	inactive: 83%

Structure (SMILES)	survival
COC(=O)c1scc(-c2ccc(C)cc2)c1S(=O)(=O)Nc1ccc(NC(C)=O)cc1	inactive: 128%
COc1ccc2c(c1)NC(c1ccc(F)cc1)=NC(c1ccc(F)cc1)=N2	inactive: 97%
CCCNC(=O)C1CCN(S(C)(=O)=O)CC1	inactive: 102%
CCOC(=O)c1cccc(NS(=O)(=O)c2cc(Br)cc3c2N(C(=O)C2CC2)CC3)c1	inactive: 115%
Cc1ccc(/C=C/c2onc(C)c2S(=O)(=O)N2CCC(C(=O)NCc3ccco3)CC2)cc1	inactive: 74%
CCN(CC)c1ccc(NC(=O)CN2C(=O)c3cccnc3Oc3ccccc32)c(C)c1	inactive: 116%
Cc1cc(C)cc(NS(=O)(=O)c2ccc(-c3cc(C)no3)cc2)c1	inactive: 55%
Cc1ccc(CCNC(=O)c2ccc3c(c2)N(Cc2cc(C)ccc2C)C(=O)c2ccccc2S3=O)cc1 (centres undefined)	inactive: 56%
CCCCC(=O)Nc1ccc(NC(=O)C2CC2)nc1	inactive: 75%
CCCCN(Cc1ccccc1)S(=O)(=O)c1ccc2c(c1)CCN2C(=O)C1CCC1	inactive: 86%
CCCSCCCNC(=O)C1CCCN(C(=O)c2cnn(-c3ccccc3)c2-n2cccc2)C1 (centres undefined)	inactive: 91%
O=C(Cn1nc(Cc2cccnc2)c2ccccc2c1=O)N1CCN(c2ccc(F)cc2)CC1	inactive: 79%
COC(=O)c1ccc(OCC2c3cc(OC)c(OC)cc3CCN2C(=O)c2cccc(C)c2)cc1 (centres undefined)	inactive: 94%
COc1ccc(NC(=O)C2CCN(C3=NS(=O)(=O)C(c4ccc(C)c(C)c4)=C3C)CC2)cc1OC	inactive: 82%
COc1cccc(N2CCN(C(=O)CN3CCSc4ccc(S(=O)(=O)N(C)C)cc43)CC2)c1	inactive: 87%
CCn1nnnc1SCC(=O)c1ccc(NC(C)=O)cc1	inactive: 86%
COc1ccc(CNC(=O)CCS(=O)(=O)c2cc(Br)cc3c2N(C(=O)C2CC2)CC3)cc1	inactive: 90%
Cc1cc(C)c(NC(=O)CN2C(=O)c3cccnc3Oc3ccc(Cl)cc32)c(C)c1	inactive: 95%
O=C(Cc1ccc(Cl)cc1)NCCN1CCOCC1	inactive: 91%
Cc1cc(Nc2ccc(C)c(Cl)c2)n2nc(-c3ccccc3)nc2n1	inactive: 57%
Cc1ccc(C(=O)N2c3nc(-c4ccco4)nn3C3(CCCCC3)[C@@H]3CCCC[C@@H]32)cc1	active: 59%
NC(=O)CCN1CCOCC1	inactive: 100%
CC1CCN(S(=O)(=O)c2cccc(C(=O)NC3CCS(=O)(=O)C3)c2)CC1 (centres undefined)	inactive: 81%

Structure (SMILES)	survival
CCN(C(=O)C(NS(=O)(=O)c1cccc2nsnc12)c1ccccc1)c1ccccc1 (centres undefined)	inactive: 123%
COc1ccc(-c2ccnc3c2c(=O)n(C)c(=O)n3C)cc1OC	inactive: 78%
COCCCNC(=O)CCCN1C(=O)CCn2nc(-c3cn(C)c4ccccc34)cc21	inactive: 94%
Cc1ccc(C)c(N2CCN(CCCNc3ncnc4onc(-c5ccc(Cl)cc5)c34)CC2)c1	inactive: 73%
Cc1ccc(NC(=O)[C@H](CSCc2ccccc2)N2Cc3ccccc3C2=O)cc1	inactive: 73%
COc1ccc(OC)c(CNC(=O)CCS(=O)(=O)c2ccc3c(c2)oc(=O)n3C)c1	inactive: 83%
CCOc1ccc(-c2cc(C)n3nc(C(=O)Nc4cc(Cl)ccc4O)cc3n2)cc1	inactive: 62%
COc1cccc(NC(=O)Cn2c(=O)n(Cc3nc(-c4ccccc4)no3)c(=O)c3ccccc32)c1	inactive: 86%
COc1ccccc1/C=C(\C#N)c1nc(-c2cc3ccccc3oc2=O)cs1	active: 56%
CCC(=O)Nc1ccc(S(=O)(=O)NCc2cccn2Cc2cccc(C)c2)cc1	inactive: 80%
CCOC(=O)N1CCC(NC(=O)c2cnn(-c3ccccc3)c2C2CCN(C(=O)OC(C)(C)C)CC2)CC1	inactive: 117%
Cc1ccc(C(=O)NC(C)C)cc1C	inactive: 66%
COc1ccc(S(=O)(=O)NCCc2sc(-c3ccccc3)nc2C)cc1OC	inactive: 95%
CCc1ccccc1NC(=O)CSc1ncc2c(n1)-c1ccccc1N(C)S2(=O)=O	inactive: 124%
COc1ccc(-c2nc3cc(NC(=O)COc4ccc(F)cc4)ccc3o2)cc1	inactive: 62%
CN1C(=O)CSC1=Nc1cccc(C(=O)O)c1	inactive: 89%
CN1/C(=N\N)c2cccc3cccc1c23	inactive: 83%
COc1ccc(S(=O)(=O)N2CCC(C(=O)N3CCCC3)CC2)cc1OC	inactive: 84%
Cc1csc2nc(-c3cccc(NC(=O)c4ccc(S(N)(=O)=O)cc4)c3)cn12	inactive: 122%
O=C(CCNS(=O)(=O)c1cccc2nsnc12)Nc1ccc(F)cc1	inactive: 56%
